Experimental data taken from the RNAGym collection of RNA variant scans (doi:10.7554/elife.90254).
The source gives no read counts; variants with many changes may rest on few reads.

B1: LINE1-mini (parent)
chain: GGCAGAGCUCAACACAGCGUGGCAAAGUGGCUGUGGCUAGACUGCC

Variants of: B1
Test: self-cleavage, relative activity (ratio to wild type); higher = more cleavage; in vitro, sequencing; the parent is a self-cleaving ribozyme

| Variant | self-cleavage |
| --- | --- |
| A16U A25G G44U | 0.13 |
| A16U A26C C46U | 0.04 |
| A16U A26G G33U U34A | 0.08 |
| A16U C18A A25U G36A | 0.03 |
| A16U C18A U32G | 0.14 |
| A16U C18G A26G | 0.01 |
| A16U C18G G21U C37A | 0.01 |
| A16U C18U G29U G36A G40U | 0.04 |
| A16U C18U G36C G40C C42A C46U | 0.02 |
| A16U C23A C31A U32A | 1.6 |
| A16U C23A C42A | 0.05 |
| A16U C23G A26G G30C G35C G44C | 0.03 |
| A16U C23G C46G | 0.06 |
| A16U C23G G27A C45A | 0.01 |
| A16U C23G U34A C45U | 0.06 |
| A16U C31A C45A | 0.26 |
| A16U C31A C45U | 0.03 |
| A16U C37A A41U | 0.01 |
| A16U C37U G40C C45A | 0.03 |
| A16U C42A C45U | 0.03 |
| A16U C42G G44C | 0.01 |

| Variant | self-cleavage |
| --- | --- |
| A16U C42U C46A | 0.02 |
| A16U G17A C46G | 0.02 |
| A16U G17C C18U G29A U43C | 0.07 |
| A16U G17C C23G U38A | 0.03 |
| A16U G17U C18U G30U U34A G35A | 0.02 |
| A16U G17U G29A U38A | 0.41 |
| A16U G17U U28G G40U | 0.06 |
| A16U G21A A25G C42G | 0.01 |
| A16U G21C G30A | 0.11 |
| A16U G21U G22U C42G | 0.02 |
| A16U G21U U38C | 0.12 |
| A16U G22C C37G U38A | 0.14 |
| A16U G22C C42U | 0.06 |
| A16U G22U A39C | 0 |
| A16U G22U G27A U34A U43A | 0.25 |
| A16U G27U C31A G35C | 0.03 |
| A16U G27U U28C C42G G44A | 0.03 |
| A16U G29A C45U | 0.79 |
| A16U G29A U38G | 0.02 |
| A16U G29C G30U | 0.18 |
| A16U G29C G36A | 0.01 |

| Variant | self-cleavage |
| --- | --- |
| A16U G30A C31G | 0.02 |
| A16U G30A C31U G35A | 0 |
| A16U G33C C37U A39C G44A | 0.02 |
| A16U G35C C46G | 0.04 |
| A16U G35U C42U | 0.22 |
| A16U G35U G40A C45G | 0.04 |
| A16U G36A C37G | 0.06 |
| A16U G36A C45G | 0.1 |
| A16U U20A G33C | 0.02 |
| A16U U20C A25G | 0.09 |
| A16U U20C C37G | 0.04 |
| A16U U20G G21C C23U | 1.1 |
| A16U U20G G22A A24C G27A G40C | 0.28 |
| A16U U43A G44A C45A | 0.12 |
| G17A A24C G29A U34G G36U C45A | 0.02 |
| G17A A24C G29U C31A | 0.01 |
| G17A A24G C45G | 0.02 |
| G17A A24U C42U | 0.04 |
| G17A A24U G30C C31A | 0.11 |
| G17A A24U G35U C46U | 0.02 |
| G17A A25G C37G | 0.02 |

| Variant | self-cleavage |
| --- | --- |
| G17A A26C C31U G33U | 0.01 |
| G17A A26C G29U | 0.03 |
| G17A A26C G36A | 0.11 |
| G17A A26G C42A | 0.03 |
| G17A A26U A39G | 0.03 |
| G17A A41C C45A | 0.01 |
| G17A A41U C46A | 0.04 |
| G17A C18A C23A | 0.2 |
| G17A C18A G21U | 0.1 |
| G17A C18A G22A A26C | 0.18 |
| G17A C18U C23U U32G | 0.04 |
| G17A C18U G29A C45U | 0.06 |
| G17A C18U G29A U38G A39U | 0.04 |
| G17A C18U G29C A39C | 0.05 |
| G17A C18U U38C | 0.08 |
| G17A C23G A24C C46A | 0.03 |
| G17A C23G A24G C42A | 0.01 |
| G17A C23G A41G | 0.02 |
| G17A C23G C37A U38C G44C | 0.01 |
| G17A C23G G35A | 0 |
